Assay results published in the supplement of paper PMC3334620.
Whole data set: some 33,000 sequences, median “E-score (-0.5 to 0.5)” near -0.01, cut for the highest 2% near 0.26. The list shows a part of the results.

biological target: Ste12 (UniProt P13574); test: PBM E-score (8-mer binding enrichment) (E-score (-0.5 to 0.5)); higher = stronger / more preferred TF binding; most listed sequences are background and not binding sites; conditions: protein concentration: 200 nM; construct: GST-DNA-binding domain
Outline: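 GST-tagged yeast TFs (full-length or DNA-binding domain) were made by PURExpress in vitro transcription/translation and applied at about 100-200 nM to universal all-10-mer Agilent arrays. The arrays were made double-stranded by primer extension, on fresh or once-stripped slides. Bound protein was detected with fluorescent anti-GST, and scans were normalised with masliner. Each ungapped eight-base word, pooled with its reverse complement, received an E-score (modified Wilcoxon-Mann-Whitney statistic) from the Universal PBM Analysis Suite.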

Row | Sequence | PBM E-score
1 | CCAAAGTC | -0.0993
2 | CTGACAGC | 0.0656
3 | GCTGGGGA | -0.114
4 | CTCGCACA | 0.127
5 | GCATTACA | -0.0746
6 | CAAAAACC | 0.128
7 | CATATCTC | 0.0308
8 | GCCGAGAC | -0.168
9 | CACTCCGC | 0.0515
10 | GCACTCCA | -0.161
11 | ACTTTCAG | 0.0489
12 | GGTACGAC | -0.236
13 | CATCCCAA | 0.0892
14 | CAGACAGA | -0.0178
15 | ACGATCAT | -0.0808
16 | GGCTACTA | 0.0888
17 | CTCGATGC | -0.127
18 | CGCGGACC | 0.183
19 | AGTGGATC | 0.0108
20 | ATATGGCG | -0.0265
21 | GGTCAAGA | 0.108
22 | CAGGGTAA | 0.0319
23 | CCTACTAG | -0.113
24 | CAGGATCA | -0.0225
25 | TATGGAAA | 0.292

Row | Sequence | PBM E-score
26 | CGGACATC | -0.251
27 | CGCCGAAA | 0.151
28 | CACGTGAA | -0.104
29 | AGCACACG | -0.153
30 | AAAATAAC | 0.2
31 | CCTTTGTA | -0.0872
32 | CCACTGGG | -0.214
33 | AGGCAATC | -0.136
34 | ACTTTTCA | 0.107
35 | GTCGGCAC | -0.0727
36 | ACGAATGC | -0.0304
37 | AGCCCAAT | -0.139
38 | ATCGCTTG | -0.15
39 | AAGTACGT | -0.0519
40 | CGGGATCA | 0.0733
41 | CGGTTACG | -0.0788
42 | CTCTTCGC | -0.0664
43 | CAGGGGAG | 0.0382
44 | ATTATAGA | -0.00838
45 | CACTTAGG | -0.104
46 | CTACCCAG | -0.0199
47 | CCGCATCC | -0.0589
48 | TAGCCTGA | -0.258
49 | CTGAAGCA | 0.116
50 | ACAAAAGG | -0.156

Row | Sequence | PBM E-score
51 | AGGGTTCC | -0.0756
52 | CCGGCGAC | -0.106
53 | ACAATAAC | 0.176
54 | GCAACTCA | -0.0281
55 | ACGTAATA | 0.164
56 | GGCCCTTA | 0.0462
57 | ATTGGGTA | 0.0325
58 | AATCGCAC | 0.0035
59 | AACACGAT | 0.0313
60 | CCACAGAA | 0.0502
61 | GAAAACGC | -0.195
62 | GGTACATA | 0.151
63 | GATCGATA | 0.0823
64 | ATTTATTC | 0.121
65 | ACTAGAAC | -0.0111
66 | AGGGGGAT | -0.123
67 | GAATTTTA | 0.227
68 | ATGTGAGG | -0.0311
69 | ACTTGCCA | -0.125
70 | CTCATAGC | -0.14
71 | ATCACCGC | 0.106
72 | ACCGAGCA | 0.0351
73 | ACTCGCCA | 0.011
74 | AGAGACTG | -0.121
75 | AGTTAGAT | 0.152

Row | Sequence | PBM E-score
76 | GGAATGCA | 0.088
77 | ACGCGTTA | 0.0388
78 | ACGAGTTG | 0.0536
79 | GTTTATCA | 0.191
80 | GGGCGAAA | 0.0943
81 | CAGAGACC | -0.167
82 | AATAGAAG | 0.0647
83 | TAGCAGGA | -0.0358
84 | AAGTTCTG | -0.0235
85 | ATTCTGCC | 0.136
86 | CTGCTCGC | -0.11
87 | CTGGATAC | 0.0344
88 | CGCGCGGA | 0.0633
89 | CTCGCCTC | -0.259
90 | CTTAGAAA | 0.174
91 | GGTTAGAC | 0.00723
92 | AACCTCGG | 0.0628
93 | AAGCCTGG | -0.0472
94 | CCTGTGGC | -0.225
95 | ATGGATCA | -0.0779
96 | CTGTCCGA | -0.0783
97 | CACAAGAC | 0.00539
98 | AACAGGCT | 0.0552
99 | CATATCCA | -0.0826
100 | CAAATCCC | -0.0801

Row | Sequence | PBM E-score
101 | AGGCCGAC | -0.0167
102 | TTGGCCAA | -0.199
103 | AAGAGTAT | -0.00836
104 | AGCACAGC | -0.0983
105 | TGGCTTAA | 0.0154
106 | AAGGTTCA | -0.103
107 | TCGCTAGA | -0.179
108 | TAACTCTA | 0.0314
109 | GCGCTAGA | -0.0546
110 | CAGAACAC | 0.0346
111 | AATGTAGG | -0.213
112 | CCCTAGAC | -0.268
113 | AGTCCCTG | -0.13
114 | GACTTCGC | 0.0596
115 | CTGTTTGA | 0.308
116 | CGCTGTTC | -0.163
117 | AGCTGTGG | -0.185
118 | GTAAAAAC | 0.206
119 | GCTCCCTA | -0.324
120 | CCTAAACG | -0.0242
121 | GCTCGGAA | -0.0316
122 | ACCGAACG | 0.136
123 | GCGCGAAA | 0.182
124 | AGGCTACG | -0.335
125 | AGTTTTAA | 0.212

Row | Sequence | PBM E-score
126 | CCGCCACC | -0.0396
127 | ACTCTGCG | -0.108
128 | ATAGCGCG | 0.0761
129 | ACACTCTG | 0.0807
130 | CAACAAAC | 0.176
131 | GTGCACAC | -0.245
132 | TAGCCCAA | 0.00889
133 | GAACTATC | -0.134
134 | CAGAACCG | 0.0887
135 | CTAATCCA | 0.182
136 | ACTGTCCT | -0.109
137 | AATTTCGG | 0.103
138 | AAATTTTG | 0.0681
139 | AGCACTGC | -0.236
140 | AAGTCAGC | -0.0212
141 | ATTGCCAG | 0.206
142 | AATACCAC | 0.17
143 | GCATAAGA | 0.143
144 | CTCTGGAC | -0.0978
145 | CTCGGCTA | -0.0609
146 | ATAGTACC | 0.0385
147 | AGACTCGA | -0.177
148 | ATTTGGCG | 0.114
149 | GGTACCAC | -0.156
150 | ACAGTGAC | -0.0416

Row | Sequence | PBM E-score
151 | CATCGGCG | -0.127
152 | CGTCAATA | -0.119
153 | ATGCGGAC | -0.0592
154 | CTGGTACC | -0.229
155 | TTCGCCAA | 0.0233
156 | GCTTCTCC | -0.05
157 | AGATGGCA | -0.183
158 | ACCTGAGC | 0.00116
159 | ACTCAGAT | -0.019
160 | ACGATTAA | -0.00828
161 | TCCGCGCA | -0.0831
162 | AAAGGTGG | -0.0755
163 | ACGGCCTA | -0.0653
164 | CGGTGCCA | -0.166
165 | AACTATCA | 0.262
166 | CTGCGCGC | 0.188
167 | GTATTACA | 0.0248
168 | AAAGCCCG | -0.066
169 | AACAAGAA | 0.253
170 | AGTGGATG | -0.06
171 | ACAGACCC | -0.0793
172 | TACCTGAA | 0.0834
